Assays:
[1] = ELISA avidity estimate on MBG-KLH; type: binding; conditions: wells coated with 2 μg/ml MBG-KLH; IgG
Experimental: (§1) The avidity of anti-MBG antibodies for MBG was estimated in an ELISA. Wells of a microtiter plate were coated with 2 μg/ml of either MBG-bovine serum albumin (BSA) or MBG-keyhole limpet hemocyanin (KLH). The wells were then blocked with 1% BSA. A test IgG antibody at varying concentrations (typically from about 0.0001 nM to about 25 nM) was added to the wells. The test IgG bound to immobilized MBG was detected with an anti-human Fc, horseradish peroxidase (HRP)-conjugated secondary antibody (Jackson ImmunoResearch). After washing of the wells, an appropriate HRP reagent (e.g., TMB ultra, Thermo Fisher) was added to the wells. Optical density (OD) at 450 nm was measured by a microplate reader. The concentration of test antibody at the midpoint of the binding curve is an estimate of avidity for MBG.

[2] = system: PKC-δ in the nucleus of primary rat cardiac fibroblasts; assay: Inhibition of MBG-induced PKC-δ nuclear translocation (Western blot); conditions: MBG 2 nM; nuclei isolated 30 min later; FIG. 2a
[3] = Competitive ELISA, relative CTS specificity, free MBG as competitor; type: binding; conditions: competition with immobilized MBG-BSA; normalized to MBG = 100%
Experimental: The specificity (relative affinity) of anti-MBG antibodies for MBG relative to various cardiotonic steroids (CTSs) was determined in a competitive ELISA. Each anti-MBG antibody was tested for its binding to immobilized MBG in the presence of free MBG, resibufogenin (RBG), cinobufagin (CINO), ouabain (OUB) or digoxin (DIG) as a competitor. A constant amount of an anti-MBG antibody (typically 1-5 μg/mL) and varying concentrations of each CTS (from 10^−12M to 10^−5M) were pre-incubated before being added to the MBG-BSA-coated wells. After washing of the wells, an anti-human Fc, HRP-conjugated secondary antibody (at 1:5000 dilution) was added to the wells and incubated at 37° C. for 1 hr. After washing of the wells, an appropriate HRP reagent (e.g., TMB ultra, Thermo Fisher) was added to the wells. OD at 450 nm was measured by a microplate reader. MBG at 10 μM was assumed to be 100% competed, and MBG at 1 pM was assumed to be 0% competed. The data was plotted as a titration of antibody-antigen binding relative to free CTS concentration in the competition reaction to determine the free CTS concentration (μM) giving 50% maximal binding of antibody to immobilized MBG. The relative specificity of an antibody for a CTS was normalized to MBG=100%.

[4] = ELISA avidity estimate on MBG-BSA; type: binding; conditions: wells coated with 2 μg/ml MBG-BSA; IgG
Experimental: as §1

B1: 240/241: human anti-MBG antibody, VH SEQ ID NO: 47, VL SEQ ID NO: 48 (antibody, listed as Homo sapiens, V domains shown)
VH: QVQLQESGPGLVKPSETLSLTCTVSGGSISSSSYYWGWIRQPPGKGLEWIGSIYYSGSTYYNPSLKSRVTISVDTSKNQFSLKLSSVTAADTAVYYCARLRYSSGWYADPWGQGTLVTVSS
VL: LPVLTQPPSASGTPGQRVTISCSGSSSNIGSNIVNWYQQLPGTAPKLLIYNNNQRPSGVPDRFSGSKSGASASLAISGLQSEDEADYYCVAWDGSLSGVVFGGGTKLTVL
Estimated avidity (KA) (antibody concentration at 50% maximal binding to antigen, or EC50), Antigen 2 (MBG-KLH) [1]: 0.30 nM
amount of PKC-δ in the nucleus, MBG plus antibody [2]: to a lesser extent
Rel. CTS Specificity as % of MBG Binding: MBG [3]: 100%
Estimated avidity (KA) (antibody concentration at 50% maximal binding to antigen, or EC50), Antigen 1 (MBG-BSA) [4]: 0.22 nM
